These results are taken from patent US20250136702A1, “HUMAN LIFR ANTIGEN BINDING PROTEIN, PREPARATION METHOD THEREFOR, AND APPLICATION THEREOF” (NONA BIOSCIENCES (SUZHOU) CO., LTD., priority 2020, published 2025).

The target in one assay is T1, mouse LIFR-ECD (Mus musculus, UniProt P42703).
T1 construct: mouse LIFR-ECD proteins
T1 sequence (P42703 44-828 limits assumed): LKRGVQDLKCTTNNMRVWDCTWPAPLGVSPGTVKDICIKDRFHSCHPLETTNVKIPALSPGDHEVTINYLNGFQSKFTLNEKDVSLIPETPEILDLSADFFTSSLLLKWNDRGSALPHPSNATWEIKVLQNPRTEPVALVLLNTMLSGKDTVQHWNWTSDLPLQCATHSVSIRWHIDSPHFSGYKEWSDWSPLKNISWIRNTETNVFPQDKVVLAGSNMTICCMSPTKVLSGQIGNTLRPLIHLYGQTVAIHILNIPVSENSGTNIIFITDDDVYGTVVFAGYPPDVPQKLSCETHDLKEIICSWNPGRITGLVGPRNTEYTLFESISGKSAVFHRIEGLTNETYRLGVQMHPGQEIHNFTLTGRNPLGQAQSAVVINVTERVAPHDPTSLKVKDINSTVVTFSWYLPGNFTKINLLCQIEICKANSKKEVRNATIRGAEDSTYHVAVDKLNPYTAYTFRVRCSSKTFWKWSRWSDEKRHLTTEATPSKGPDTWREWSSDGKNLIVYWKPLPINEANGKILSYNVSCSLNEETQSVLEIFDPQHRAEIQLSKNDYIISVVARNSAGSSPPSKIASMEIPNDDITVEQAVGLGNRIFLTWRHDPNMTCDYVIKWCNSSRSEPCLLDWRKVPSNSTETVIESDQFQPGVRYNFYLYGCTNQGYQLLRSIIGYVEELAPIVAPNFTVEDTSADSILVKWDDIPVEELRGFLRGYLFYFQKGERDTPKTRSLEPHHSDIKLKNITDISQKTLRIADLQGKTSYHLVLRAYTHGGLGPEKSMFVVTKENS
Kind of assay: ELISA binding of antibodies to mouse LIFR-ECD at the protein level. Here is the method: (§1) The binding ability of the 15 antibodies prepared in examples 1-4 of the present invention to the LIFR-ECD protein was detected based on the ELISA assay method. The binding affinity of different antibodies was determined by comparing their dose response binding curves to LIFR-ECD protein. The specific experimental process is as follows: First, human LIFR-ECD, monkey LIFR-ECD and mouse LIFR-ECD proteins are diluted to a concentration of 1 μg/mL, added to a 96-well plate (100 μL per well) and placed at 4° C. overnight. The 96-well plates were washed three times with PBST solution and then placed at 37° C. for 1 h with the addition of 2% BSA in PBS solution. Antibody seris dilution is prepared and (100 nM, 10-fold-dilution), added to a 96-well plate and incubate at 37° C. for 1 h. After washing three times with PBST solution, add anti-human IgG Fc-HRP secondary antibody (for 5000× dilution) and incubate at 37° C. for 30-60 min. After washing three times with PBST solution, add TMB color development solution for 5-15 minutes, and then add termination solution to ternimate the color development.

In the next assay the target is T2, human LIFR-ECD (Homo sapiens, UniProt P42702).
T2 construct: The extracellular region (1-833 a.a.) of recombinant human LIFR protein; His tag; made in house; host or cells: HEK293 (transient transfection, purified from culture supernatant)
T2 sequence (P42702 45-833): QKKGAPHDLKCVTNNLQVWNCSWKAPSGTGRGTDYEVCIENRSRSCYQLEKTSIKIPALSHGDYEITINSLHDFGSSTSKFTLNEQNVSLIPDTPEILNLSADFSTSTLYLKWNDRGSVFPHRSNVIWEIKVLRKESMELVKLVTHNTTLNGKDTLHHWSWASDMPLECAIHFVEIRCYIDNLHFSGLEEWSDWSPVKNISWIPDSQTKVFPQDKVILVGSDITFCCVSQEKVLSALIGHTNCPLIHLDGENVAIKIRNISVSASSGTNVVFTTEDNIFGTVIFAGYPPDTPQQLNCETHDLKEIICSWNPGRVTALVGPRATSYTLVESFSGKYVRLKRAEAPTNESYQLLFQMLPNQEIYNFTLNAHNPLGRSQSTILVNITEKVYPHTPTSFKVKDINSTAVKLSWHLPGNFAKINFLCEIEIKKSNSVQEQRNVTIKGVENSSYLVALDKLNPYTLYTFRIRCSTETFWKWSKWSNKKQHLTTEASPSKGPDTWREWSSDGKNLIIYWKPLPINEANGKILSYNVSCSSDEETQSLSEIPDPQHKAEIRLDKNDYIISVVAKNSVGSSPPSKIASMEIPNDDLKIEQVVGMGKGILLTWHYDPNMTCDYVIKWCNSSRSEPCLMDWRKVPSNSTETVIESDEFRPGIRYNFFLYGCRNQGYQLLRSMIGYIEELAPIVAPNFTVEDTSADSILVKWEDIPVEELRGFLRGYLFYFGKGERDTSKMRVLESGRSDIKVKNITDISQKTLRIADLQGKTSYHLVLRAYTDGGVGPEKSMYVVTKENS
Kind of assay: ELISA binding of antibodies to human LIFR-ECD at the protein level. Here is the method:
as §1

Assay [1] has as its target T3, human LIFR expressed on the surface of 293T cells (Homo sapiens, UniProt P42702).
T3 construct: expressed in transfected cells; host or cells: HEK293T, lentiviral transduction (lenti-huLIFR), puromycin selection, monoclonal line
T3 sequence (P42702 45-1097): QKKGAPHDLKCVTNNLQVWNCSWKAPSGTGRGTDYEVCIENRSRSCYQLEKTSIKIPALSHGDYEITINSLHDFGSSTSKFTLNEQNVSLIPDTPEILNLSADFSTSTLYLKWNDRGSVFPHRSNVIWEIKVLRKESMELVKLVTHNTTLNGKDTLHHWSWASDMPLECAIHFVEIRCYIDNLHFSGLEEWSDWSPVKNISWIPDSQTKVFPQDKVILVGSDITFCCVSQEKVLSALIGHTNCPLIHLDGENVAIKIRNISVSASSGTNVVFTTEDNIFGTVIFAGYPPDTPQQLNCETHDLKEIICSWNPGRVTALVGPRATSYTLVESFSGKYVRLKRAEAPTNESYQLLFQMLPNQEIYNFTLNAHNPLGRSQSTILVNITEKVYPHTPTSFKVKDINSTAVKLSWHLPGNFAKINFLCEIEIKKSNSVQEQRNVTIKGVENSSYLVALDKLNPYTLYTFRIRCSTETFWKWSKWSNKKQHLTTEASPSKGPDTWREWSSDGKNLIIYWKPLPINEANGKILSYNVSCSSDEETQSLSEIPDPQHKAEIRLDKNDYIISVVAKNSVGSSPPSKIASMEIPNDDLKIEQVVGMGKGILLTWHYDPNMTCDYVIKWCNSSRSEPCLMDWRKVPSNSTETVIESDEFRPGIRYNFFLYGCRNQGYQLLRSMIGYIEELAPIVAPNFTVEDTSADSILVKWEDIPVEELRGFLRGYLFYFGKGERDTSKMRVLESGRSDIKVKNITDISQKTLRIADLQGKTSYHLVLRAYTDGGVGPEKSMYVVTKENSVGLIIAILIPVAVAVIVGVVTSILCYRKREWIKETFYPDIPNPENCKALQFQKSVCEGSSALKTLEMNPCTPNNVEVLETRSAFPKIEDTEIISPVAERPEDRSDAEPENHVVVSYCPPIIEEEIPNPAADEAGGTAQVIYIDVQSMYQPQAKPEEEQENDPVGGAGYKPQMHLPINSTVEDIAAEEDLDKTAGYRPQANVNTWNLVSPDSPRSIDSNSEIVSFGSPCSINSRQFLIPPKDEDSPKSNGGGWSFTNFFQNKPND
The assay is described as follows: Flow cytometry binding to HEK293T-huLIFR cells. The conditions noted are these: median fluorescence curve span. Here is the method:
The flow cytometry assay was used to detect the binding affinity of the five antibodies PR300516, PR301127, PR301152, PR301168, and PR301211 prepared in examples 1-4 to human LIFR expressed on the surface of 293T cells or human LIFR/gp130 heterodimer. The binding ability of different antibodies was determined by comparing the binding curves of human LIFR expressed on the surface of 293T cells or human LIFR/gp130 heterodimer.
The specific experimental process is: (1) Use lenti-huLIFR and lenti-LIFR/gp130 lentivirus to infect HEK293T cells, screen the infected cells with puromycin to obtain a stable cell pool: HEK293T-huLIFR and HEK293T-huLIFR/gp130; (2) Perform subclone screening on the stable cell pool to obtain a monoclonal cell line that highly expresses the target gene; (3) make series dilution of test antibody and incubate with the monoclonal cell line at 4° C. for 30 minutes, and wash three times with PBS, use FITC-labeled goat anti-human secondary antibody to incubate with 4° C. for 30 min, wash with PBS three times again, resuspend the cells in 100 μL FACS buffer; (4) The EC50 and the peak of the curve were compared using the logarithm of the antibody concentration with a base of 10 as the horizontal coordinate and the median fluorometric value of one channel as the vertical coordinate.

For a further assay, the system named is monkey LIFR-ECD. Kind of assay: ELISA binding of antibodies to monkey LIFR-ECD at the protein level. As for the experimental part:
as §1

B1: PR301127: fully human anti-LIFR IgG1 antibody; VH SEQ ID NO: 58, VL SEQ ID NO: 66, HC SEQ ID NO: 82, LC SEQ ID NO: 90 (antibody)
heavy: EVQLLQSGGGLVQPGGSLRLSCAASGFTFSNYAMTWVRQAPGKGLEWVSTISGSGAFTYYADAVKGRFTISRVNSKNSLDLQMNSLRAEDTAVYYCAKGGILTGFDNWGQGTLVTVSS[here human IgG1 constant region without letters]
light: DIQMTQSPSTLSASVGDRVTITCRASQSISSWLAWYQQKPGKAPKLLIYKASSLESGVPSRFSGSGSGTEFSFTISSLQPDDFATYYCQQYKSFSPGGLTFGGGTKVEIKRTVAAPSVFIFPPSDEQLKSGTASVVCLLNNFYPREAKVQWKVDNALQSGNSQESVTEQDSKDSTYSLSSTLTLSKADYEKHKVYACEVTHQGLSSPVTKSFNRGEC
B1: the “cross-binding to mouse LIFR-ECD protein (in words)” value with mouse LIFR-ECD is given as “can cross-binding”. Also, the “binding ability to human LIFR-ECD protein (in words)” value with human LIFR-ECD is reported as “have binding ability”. The Span in assay [1] came to 237. In the assay with monkey LIFR-ECD, the “binding ability to monkey LIFR-ECD protein (in words)” value is “have binding ability”.
